Biological target: T1, E7 colicin (Escherichia coli, UniProt Q47112)
T1 sequence (Q47112 1-576): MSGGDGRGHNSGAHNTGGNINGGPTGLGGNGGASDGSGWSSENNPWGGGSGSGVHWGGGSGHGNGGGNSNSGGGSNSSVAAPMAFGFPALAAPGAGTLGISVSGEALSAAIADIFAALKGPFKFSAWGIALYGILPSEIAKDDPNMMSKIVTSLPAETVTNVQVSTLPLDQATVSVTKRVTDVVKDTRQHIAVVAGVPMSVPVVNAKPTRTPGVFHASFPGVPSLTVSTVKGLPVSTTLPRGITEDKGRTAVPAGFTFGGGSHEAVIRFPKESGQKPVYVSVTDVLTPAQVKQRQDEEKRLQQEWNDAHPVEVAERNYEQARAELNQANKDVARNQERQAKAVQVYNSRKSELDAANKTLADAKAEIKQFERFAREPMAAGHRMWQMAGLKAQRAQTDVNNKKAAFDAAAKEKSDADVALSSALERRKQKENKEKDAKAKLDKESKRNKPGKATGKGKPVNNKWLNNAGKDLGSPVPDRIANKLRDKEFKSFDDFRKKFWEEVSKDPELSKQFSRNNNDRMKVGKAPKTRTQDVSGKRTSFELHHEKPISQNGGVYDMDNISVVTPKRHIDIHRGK
Experiment: In vivo colicin activity measurements
Conditions: E. coli JM83 expressing the Im7 variant; in words

B1: Wildtype Im7: small helical protein that confers immunity to bacterial colicin E7 (protein)
chain: MELKNSISDYTEAEFVQLLKEIEKENVAATDDVLDVLLEHFVKITEHPDGTDLIYYPSDNRDDSPEGIVKEIKEWRAANGKPGFKQG
How did the “ability to inhibit killing by exogenously added colicin E7” value turn out when B1 was run?
Its value is “could survive the maximum concentration of applied colicin”.

From patent US8986997B2, “Methods and compositions for increasing biological molecule stability” (The Regents of the University of Michigan, priority 2007, dated 2015)
